# “And” between values parts separate entries of the source, which are not always exact repeats. Equal entries are not always repeated. The whole screen tested about 110,000 compounds, of which about 40 (0.04%) were called active. Inconclusive means that the source gave no clear call. Such entries were picked first, then a sample of the others. Calls come from the whole dose curve; as a rule, active = well fitted curve in the direction sought with a large enough effect in the signal ratio (not every such curve was filed as active); inconclusive = small, poorly fitted or top-dose-only effect, or a change in a side signal; inactive = flat fitted curve, though single readings scatter; the % refers to the signal ratio. Potencies of inconclusive entries are doubtful fits and often do not repeat.
# Experiment: IkB Signaling;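 for IkBa stabilization activation: 0% = basal untreated cells and 100% = reference inhibitor full response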
# Details: ABC-DLBCL IkBa-CBG/CBR dual luciferase ratio (green luciferase fused to IkBa over red control in OCI-Ly3 lymphoma cells), 4 h, scaled: untreated 0%
# Procedure, shortened: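 In this assay, an IκBα–CBG68 fusion accumulates when IKK-driven degradation is blocked; native CBR normalizes for cell number. OCI-Ly3 cells were treated 4 h with compound and doxycycline, then green and red light read after Chroma-Glo addition.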
# [1] = IkBa stabilization activation: at 57.1 µM (top of the series), proteasome inhibitor 100% unless noted
# Potency is the fitted concentration of half-maximal effect.
smiles,measurement,setting,value
Cc1ccc(NC(=O)C2CCN(C(=O)c3cnn(-c4ccccc4)c3-n3cccc3)CC2)cc1Cl,IkBa stabilization activation,[1],inconclusive: 8.77% [signal inhibitor]
COc1cc2cc(CN(C(=O)Nc3ccccc3)C3CCCC3)c(=O)[nH]c2cc1OC,IkBa stabilization activation,[1],inconclusive: 0.91% [signal inhibitor]
Cc1ccc(Nc2nc(C(N)=O)c(NC(=O)c3ccccc3Br)s2)cc1,IkBa stabilization activation,[1],inactive
CCCCOc1ccccc1NC(=O)c1ccco1,IkBa stabilization activation,[1],inconclusive: 0.325% [signal inhibitor]
Cc1ccc(Cl)cc1NC(=O)C(NS(=O)(=O)c1ccc2c(c1)CCC(=O)N2)c1ccccc1 (stereo not drawn),IkBa stabilization activation,[1],inconclusive: 2.55% [signal inhibitor]
CCc1ccc(NCc2cc3cc(OC)c(OC)cc3n(CC(=O)Nc3ccc(F)cc3)c2=O)cc1,IkBa stabilization activation,[1],inconclusive: 1.81% [signal inhibitor]
CC(C)(C)C(=O)Nc1ccc2nc(SCc3ccccc3)sc2c1,IkBa stabilization activation,[1],inconclusive: 0.59% [signal inhibitor]
COc1ccc(C(=O)n2c(-c3ccco3)nc3ccccc32)cc1,Potency,[1],"inconclusive: 31.6 µM [signal inhibitor, single point]"
O=C(c1ccncc1)N1CCC[C@@]2(CCN(C(c3ccccc3)c3ccccc3)C2)C1,IkBa stabilization activation,[1],"inactive: 1.1% [at 11.4 µM, scaled: untreated 0%, proteasome inhibitor 100%]"
CC(C)c1ccc(NC(=O)C(Cc2ccccc2)n2cccc2)cc1 (stereo not drawn),IkBa stabilization activation,[1],inconclusive: 1.51% [signal inhibitor]
COc1cc(C)cc(OC)c1/C=C\C(=O)O,IkBa stabilization activation,[1],"inactive: 0.349% [at 11.4 µM, scaled: untreated 0%, proteasome inhibitor 100%]"
COc1cccc(NC(=O)c2oc3ccccc3c2NC(=O)c2ccc(OC(C)C)cc2)c1,IkBa stabilization activation,[1],inactive
CCCc1cc(=O)n2[nH]c(-c3ccc(Br)cc3)cc2n1,Potency,[1],"inconclusive: 15.8 µM [signal inhibitor, partial curve]"
[O-][n+]1onc2c1CCc1nnc(-c3ccccc3)cc1-2,IkBa stabilization activation,[1],inactive
CC(=O)Nc1nonc1-c1nnc(SCC(=O)Nc2c(C)cccc2C)n1-c1ccccc1,IkBa stabilization activation,[1],inconclusive: 1.68% [signal inhibitor]
CCn1cc(C(=O)NCc2ccc(Cl)cc2)c(=O)c2cc(S(=O)(=O)N3CCc4ccccc4C3)ccc21,IkBa stabilization activation,[1],inconclusive: -0.0947% [signal inhibitor]
COCC(C)NS(=O)(=O)c1ccc(N2CCCCS2(=O)=O)cc1 (stereo not drawn),IkBa stabilization activation,[1],inactive
CCCCC12CN3CC(C)(CN(C1)C3c1ccc(OCc3ccccc3)cc1)C2=O (stereo not drawn),IkBa stabilization activation,[1],inconclusive: 1.88% [signal inhibitor]
O=C(C1CCN(S(=O)(=O)c2cccs2)CC1)N1CCN(c2ccccc2F)CC1,IkBa stabilization activation,[1],inconclusive: 6.01% [signal inhibitor]
O=C(CCCCCn1c(=O)[nH]c2ccccc2c1=O)N1CCN(c2cccc(C(F)(F)F)c2)CC1,IkBa stabilization activation,[1],inconclusive: -2.95% [signal inhibitor]
C[C@H](NC(=O)/C(C#N)=C/c1ccc(O)c(O)c1)c1ccccc1,IkBa stabilization activation,[1],inconclusive: 0.0448% [signal inhibitor]
same,IkBa stabilization activation,"at 57.1 µM (top of the series), proteasome inhibitor 100%",inactive: 7.05% and inactive: -4.52%
COc1ccc(C)cc1NC(=O)CN(C)S(=O)(=O)c1ccc2c(c1)c(=O)n(C)c(=O)n2C,IkBa stabilization activation,[1],inactive
FC(F)(F)c1cccc(Nc2nc3nonc3nc2Nc2ccc(Cl)cc2)c1,Potency,[1],inconclusive: 3.98 µM [signal inhibitor]
CCC(CC)C(=O)Nc1ccc(S(=O)(=O)N2CCC(c3nc4ccccc4s3)CC2)cc1,IkBa stabilization activation,[1],inconclusive: 6.75% [signal inhibitor]
Cc1nc(-c2ccc(S(=O)(=O)N3CCN(c4ccccc4F)CC3)cc2)co1,IkBa stabilization activation,[1],inconclusive: 3.46% [signal inhibitor]
CCN(C(=O)Cn1c(C(=O)OC)cc2sccc21)c1cccc(C)c1,IkBa stabilization activation,[1],inconclusive: 1.38% [signal inhibitor]
Cc1cnc(CNc2nc(-c3cccc(NS(C)(=O)=O)c3)nc3ccccc23)cn1,IkBa stabilization activation,[1],"inactive: -6.27% [at 11.4 µM, scaled: untreated 0%, proteasome inhibitor 100%]"
CC(C)NC(=O)c1ccc(CSc2nc3ccncc3n2Cc2cccc(F)c2)cc1,IkBa stabilization activation,[1],inconclusive: 1.13% [signal inhibitor]
CC(C)Oc1cccc(C(=O)Nc2ccccc2N2CCOCC2)c1,IkBa stabilization activation,[1],inactive
CCCCN(CCCC)CCCNC(=O)c1cc(-c2ccc(Cl)s2)nc2ccccc12,IkBa stabilization activation,[1],inconclusive: 2.61% [signal inhibitor]
CC(C)c1ccc(C2CC(=O)N3CN(C4CCCCC4)CSC3=C2C#N)cc1 (stereo not drawn),IkBa stabilization activation,[1],inconclusive: 3.82% [signal inhibitor]
Cn1ccc2cc(S(=O)(=O)N3CCCC(C(=O)NCc4ccccc4F)C3)ccc21 (stereo not drawn),IkBa stabilization activation,[1],inconclusive: 2.2% [signal inhibitor]
CCCCC(NS(=O)(=O)c1ccc(OC)cc1)C(=O)O (stereo not drawn),IkBa stabilization activation,[1],inactive
CC1=C(C(=O)Nc2ccccc2)C(c2ccc(Br)cc2)n2nc(CCCO)nc2N1 (stereo not drawn),IkBa stabilization activation,[1],inconclusive: 4.05% [signal inhibitor]
CCCc1cc(=O)[nH]c(Nc2cc(Cl)cc(Cl)c2)n1,IkBa stabilization activation,[1],inconclusive: -1.73% [signal inhibitor]
O=C(O)c1ccc(/C=N\N=C2c3ccccc3-c3ccccc32)cc1,Potency,[1],"inconclusive: 0.2 µM [signal inhibitor, full curve]"
COc1ccccc1N1CCN(C(=O)c2nn(C)c3c2CS(=O)(=O)c2ccccc2-3)CC1,IkBa stabilization activation,[1],inconclusive: 10.7% [signal inhibitor]
Cc1cc2nnc(SC3CCOC3=O)n2c2ccccc12 (stereo not drawn),IkBa stabilization activation,[1],inactive
COc1cccc(CNC(=O)CN2C(=O)COc3ccc(S(=O)(=O)N4CCCCC4)cc32)c1,IkBa stabilization activation,[1],inactive
CCn1cc2nc(SCc3cc(C)ccc3C)n(Cc3ccc(Cl)cc3)c(=O)c2n1,IkBa stabilization activation,[1],inconclusive: -5.05% [signal inhibitor]
Cc1nn(Cc2ccc(F)cc2)c(C)c1NC(=O)c1noc2c1CCc1ccccc1-2,Potency,[1],inconclusive: 39.8 µM [signal activator]
Cc1nc2nc(Cc3ccccc3)nn2c(C)c1Cl,IkBa stabilization activation,[1],inactive
CCOC(=O)c1ccc(NC(=O)Cc2noc3ccc(C)cc23)cc1,Potency,[1],"inconclusive: 15.8 µM [signal inhibitor, partial curve]"
Cn1cc(S(=O)(=O)N2CCCC2)cc1C(=O)Nc1ccc(F)cc1F,IkBa stabilization activation,[1],inconclusive: 2.45% [signal inhibitor]
O=C(CSc1nc2c([nH]c3ccccc32)c(=O)n1-c1ccccc1)N1CCCCC1,IkBa stabilization activation,[1],inactive
CCCn1c(SCC(=O)Nc2cccc(C(=O)OCC)c2)nnc1-c1ccoc1C,IkBa stabilization activation,[1],inconclusive: 5% [signal inhibitor]
Cc1cccc(-n2c3nc(=O)[nH]c(=O)c-3cc3ccc(Cl)cc32)c1C,IkBa stabilization activation,[1],inconclusive: 16.9% [signal inhibitor]
CCOc1ccc(-c2cc(C(=O)NCCc3ccc(C)cc3)c3ccccc3n2)cc1,IkBa stabilization activation,[1],inactive
Cc1noc(NC(=O)Nc2ccccc2F)c1C#N,IkBa stabilization activation,[1],"inactive: 7.37% [at 11.4 µM, scaled: untreated 0%, proteasome inhibitor 100%]"
COc1ccc(-c2coc3cc(O)cc(O)c3c2=O)cc1,IkBa stabilization activation,[1],"inactive: -2.15% [at 11.4 µM, scaled: untreated 0%, proteasome inhibitor 100%]"
CCOC(=O)CC(NC(=O)Cn1nnc(-c2ccc(Cl)cc2)n1)c1ccc(OC)cc1 (stereo not drawn),IkBa stabilization activation,[1],inconclusive: -1.54% [signal inhibitor]
COc1cc(OC)c(NC(=O)c2ccc(-n3cnc4cccnc43)cc2)cc1Cl,IkBa stabilization activation,[1],inconclusive: -0.877% [signal inhibitor]
CC(=O)Nc1cccc(NC(=O)CSc2nccn2Cc2ccccc2)c1,IkBa stabilization activation,[1],inconclusive: 2.39% [signal inhibitor]
Cc1c(CC(=O)NCCc2ccccc2)c(=O)oc2c(C)c3occ(C(C)(C)C)c3cc12,IkBa stabilization activation,[1],inactive
CC(=O)c1cccc(NC(=O)Cn2ccn3nc(-c4ccccc4)cc3c2=O)c1,IkBa stabilization activation,[1],inconclusive: 0.821% [signal inhibitor]
Cc1cc(C)c2c(NC(=O)c3ccccc3Cl)c(C(=O)NCc3ccc(Cl)cc3)sc2n1,IkBa stabilization activation,[1],inactive
N#CCSc1nc2c(c(C3CC=CCC3)c1C#N)CCC2 (stereo not drawn),Potency,[1],"inconclusive: 25.1 µM [rising, partial curve]"
O=C(O)c1cc(C(=O)O)nc(C(=O)O)c1,IkBa stabilization activation,[1],"inactive: -0.557% [at 11.4 µM, scaled: untreated 0%, proteasome inhibitor 100%]"
COc1ccc(OCCCn2c(C3CC(=O)N(c4ccc(F)cc4)C3)nc3ccccc32)cc1 (stereo not drawn),IkBa stabilization activation,[1],inconclusive: 2.13% [signal inhibitor]
CCc1cccc(NC(=O)CN2C(=O)NC3(CCCCCCC3)C2=O)c1,IkBa stabilization activation,[1],inactive
Cc1nn(Cc2ccccc2)c2sc(C(=O)N3CCN(Cc4ccc5c(c4)OCO5)CC3)cc12,IkBa stabilization activation,[1],inconclusive: 5.89% [signal inhibitor]
O=C(CSc1nc2ncccc2o1)Nc1ccc(Cl)cc1F,IkBa stabilization activation,[1],inactive
Clc1ccc(OCc2nn3c(C4CCCCC4)nnc3s2)c(Cl)c1,IkBa stabilization activation,[1],inactive
COc1ccc(OC)c(NC(=O)c2cc3cccc(OC)c3oc2=O)c1,Potency,[1],"inconclusive: 0.631 µM [signal inhibitor, full curve]"
Cc1ccc(-c2nc3cccc(C)n3c2Nc2ccc3c(c2)OCO3)o1,IkBa stabilization activation,[1],inconclusive: 6.13% [signal inhibitor]
Cc1ccc2nc(-c3ccc(SCC(=O)Nc4cc(C)on4)nc3)[nH]c2c1,IkBa stabilization activation,[1],inconclusive: 3.75% [signal inhibitor]
CCOc1ccccc1C(=O)N1CCc2cc(OC)c(OC)cc2C1COc1ccc(OC)cc1 (stereo not drawn),IkBa stabilization activation,[1],inconclusive: -1.26% [signal inhibitor]

# Reference: PubChem BioAssay AID445 (National Center for Advancing Translational Sciences (NCATS), 2006)
